Laboratory results: paper PMC4336329 (PLoS ONE, 2015)
Hit rate of the full screen: of about 310,000 compounds, about 14,000 (4.5%) showed an effect of 50% or more. Effects have a minus sign here. The list shows a part of the results.

Biological target: human ether-à-go-go-related gene (hERG) potassium channel (human, UniProt Q12809)
Test: primary screen, population patch clamp on CHO cells stably expressing hERG
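Also: peak tail current of the secondary pulse compared with the same well before compound.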

Sequence of human ether-à-go-go-related gene (hERG) potassium channel (Q12809 whole entry, looked up): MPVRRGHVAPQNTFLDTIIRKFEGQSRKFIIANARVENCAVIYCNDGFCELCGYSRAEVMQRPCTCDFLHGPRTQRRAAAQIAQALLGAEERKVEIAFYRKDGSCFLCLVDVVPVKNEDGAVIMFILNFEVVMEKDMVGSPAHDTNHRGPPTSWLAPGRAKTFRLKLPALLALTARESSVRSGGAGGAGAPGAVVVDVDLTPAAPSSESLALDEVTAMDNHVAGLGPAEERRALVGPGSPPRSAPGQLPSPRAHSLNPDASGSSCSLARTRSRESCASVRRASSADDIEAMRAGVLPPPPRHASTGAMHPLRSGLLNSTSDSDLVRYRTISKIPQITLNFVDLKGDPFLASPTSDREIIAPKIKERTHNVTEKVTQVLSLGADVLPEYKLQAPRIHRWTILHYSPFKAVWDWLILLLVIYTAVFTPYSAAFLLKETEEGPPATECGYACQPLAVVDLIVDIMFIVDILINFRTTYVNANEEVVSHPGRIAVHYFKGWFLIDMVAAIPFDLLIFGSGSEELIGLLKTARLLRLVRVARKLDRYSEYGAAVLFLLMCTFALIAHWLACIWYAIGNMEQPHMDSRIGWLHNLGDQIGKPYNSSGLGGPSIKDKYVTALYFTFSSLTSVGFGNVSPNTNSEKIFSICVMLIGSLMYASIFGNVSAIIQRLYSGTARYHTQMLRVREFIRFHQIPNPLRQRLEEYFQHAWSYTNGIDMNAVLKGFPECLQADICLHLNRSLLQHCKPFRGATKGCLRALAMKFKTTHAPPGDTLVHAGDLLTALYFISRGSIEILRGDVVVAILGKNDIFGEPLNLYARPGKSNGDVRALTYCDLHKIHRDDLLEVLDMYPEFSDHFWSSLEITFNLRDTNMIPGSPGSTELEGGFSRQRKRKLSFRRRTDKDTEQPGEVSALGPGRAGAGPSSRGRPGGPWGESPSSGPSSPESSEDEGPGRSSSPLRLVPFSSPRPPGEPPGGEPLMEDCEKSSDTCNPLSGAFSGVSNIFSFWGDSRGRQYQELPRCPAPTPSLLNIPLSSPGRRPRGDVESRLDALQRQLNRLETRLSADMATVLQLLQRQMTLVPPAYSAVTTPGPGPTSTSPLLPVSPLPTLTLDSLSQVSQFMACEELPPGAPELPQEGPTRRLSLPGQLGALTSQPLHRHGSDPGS

| SMILES | hERG current change (%, negative = inhibition) at 10uM [%] |
| --- | --- |
| CC1c2[nH]c3ccccc3c2C[C@H]2C(=O)N(CCCN(C)C)CC(=O)N12 (some centres unmarked) | 12.8 |
| Cc1ccc(/C=C/C(=O)OCC(=O)NCc2ccc(Cl)cc2)o1 | -13.9 |
| O=C1c2oc3ccccc3c(=O)c2C(c2cccc(O)c2)N1c1ccccn1 (centres unmarked) | -25.2 |
| COc1cc2c(cc1OC)CN(C(=S)Nc1ccccc1)CC2 | -7.19 |
| CCOc1ccc(N2C(=O)CC(N3CCN(C(=O)c4ccco4)CC3)C2=O)cc1 (centres unmarked) | -9.91 |
| COCc1ccc(C(=O)N2CCCC(CNC(=O)c3ccc(F)cc3)C2)o1 (centres unmarked) | 2.5 |
| COc1ccc(-c2cc(C(F)(F)F)nc(SCC(=O)NCc3ccco3)n2)cc1OC | -7.74 |
| Cc1ccc(S(=O)(=O)N2CCC(C(=O)OCC(=O)NC3(C#N)CCCCC3)CC2)cc1C | -13.6 |
| COC(=O)c1ccc(CN2CCCC(C(=O)c3ccccc3OC)C2)cc1 (centres unmarked) | -43.1 |
| CN(C(=O)COC(=O)c1n[nH]c2ccccc12)c1ccccc1 | 2.74 |
| CSc1ccc(CN2CCC(C(=O)NCc3ccc(C)cc3)CC2)cc1.O=C(O)C(=O)O | -87.6 |
| CCCn1c(=S)[nH]c2sc3c(c2c1=O)CCCC3 | 3.06 |
| Cc1ccc(CS(=O)(=O)CCC(=O)NCCN2CCCC2)cc1 | -1.69 |
| CC(=O)N1c2ccc(S(=O)(=O)NCCC(=O)NCCc3ccc(Cl)cc3)cc2CC1C (centres unmarked) | 0.254 |
| COc1ccccc1-c1nnc(SCC(=O)N2CCC(C)CC2)o1 | -4.86 |
| O=C(NC1C2CC3CC(C2)CC1C3)c1ccc(Br)o1 (centres unmarked) | -13 |
| COc1ccc(/C=C(/NC(=O)c2ccc(OC)c(OC)c2)C(=O)NCCCn2ccnc2)cc1 | 11.5 |
| C/C(=C\c1ccco1)C1C(C#N)=C(N)Oc2n[nH]c(-c3ccc(C)cc3)c21 (centres unmarked) | 15.8 |
| Cc1snc(S(=O)(=O)/C(C#N)=N/Nc2cccc(C(F)(F)F)c2)c1C#N | 8.8 |

| SMILES | hERG current change (%, negative = inhibition) at 10uM [%] |
| --- | --- |
| COc1cccc(Oc2nnnn2-c2ccccc2)c1 | -4.26 |
| CSc1nc2ccc(S(N)(=O)=O)cc2s1 | 17.5 |
| CCc1[nH]nc2c1C(c1ccc(Br)s1)C(C#N)=C(N)O2 (centres unmarked) | -6.12 |
| CC(=O)Nc1ccc(NC(=O)c2cc(-c3cc(C)c(C)cc3O)n[nH]2)cc1 | 23.4 |
| Cc1coc2c1c(C)cc1oc(=O)c(CC(=O)NCC(=O)O)c(C)c12 | 24.3 |
| COc1cccc(CC2CC(=O)N(c3ccc4c(C)cc(=O)oc4c3)C2=O)c1 (centres unmarked) | -4.35 |
| CCC1(CC)NC(=O)N(CC(=O)OCC(=O)Nc2cc(OC)ccc2OC)C1=O | 5.62 |
| CSc1ccc(CNC(=O)C2Cc3cc(S(=O)(=O)N4CCCC4)ccc3N2C(C)=O)cc1 (centres unmarked) | -38.2 |
| O=S(=O)(Nc1cc(F)ccc1F)c1cccc2nonc12 | -83.6 |
| COc1cccc(OCc2nc3ccccc3[nH]2)c1 | -4.57 |
| Cc1ccc(NC(=O)c2ccccc2NC(=O)c2cccnc2)cc1 | 14 |
| Cc1ccc(S(=O)(=O)Nc2cccc(C(=O)NCc3ccccn3)c2)cc1F | -13.9 |
| CCCCNC(=O)[C@H]1C[C@H]1[C@@H](O)[C@H](CO)NC(=O)[C@H](Cc1ccccc1)NC(=O)OC(C)(C)C | 17.6 |
| COc1cc(C2NC(=O)NC(C)=C2C(=O)OCC2CCCCC2)ccc1O (centres unmarked) | -0.392 |
| CCOC(=O)c1cc(NC(=O)Nc2ccc(Br)cc2)c(C)nc1C | 10.4 |
| COc1ccc(NC(=O)C2CCCN2C(=O)OCc2ccccc2)cc1 (centres unmarked) | -15.2 |
| CN(CC(=O)Nc1ccc(Cl)c(Cl)c1)C(=O)c1cccc2cccnc12 | -37.1 |
| COc1ccc(OCCCN2CCCC(C)C2)cc1 (centres unmarked) | -32 |
| CCCNC(=O)N1CCN(S(=O)(=O)c2ccc(C)c(C)c2)CC1 | -13.2 |

| SMILES | hERG current change (%, negative = inhibition) at 10uM [%] |
| --- | --- |
| Cc1ccccc1NC(=O)c1ocnc1C | 8.41 |
| CS(=O)(=O)N(CC(=O)NCc1cccnc1)C1CCCCC1 | 5.98 |
| O=C(CCS(=O)(=O)c1ccccc1)Nc1nncs1 | 8.6 |
| CC(=O)Nc1nc2n(n1)C(c1ccccc1)C=C(c1ccccc1)N2 (centres unmarked) | -25.8 |
| O=C(CNC(=O)c1ccc(Br)o1)NCc1ccccc1Cl | 1.15 |
| Cc1cc(Br)ccc1OCCn1ccnc1.O=C(O)C(=O)O | -3.76 |
| COc1ccc(NCC(=O)Nc2ccc(Cl)cc2C)c(OC)c1 | 0.738 |
| CC(=O)c1ccc(OCC(=O)NC(=O)NC2CCCCC2)cc1 | 0.648 |
| OCCC1CN(Cc2ccc(Oc3ncccn3)cc2)CCN1Cc1ccc(F)c(F)c1 (centres unmarked) | -23.6 |
| CCOc1ccc(NC(=O)c2sc(N3CCOCC3)nc2-c2ccccc2)cc1 | 19.7 |
| CCCc1ccc(C(C)NC(=O)c2cnccn2)cc1 (centres unmarked) | 11.8 |
| CCC(=O)N(CC(=O)Nc1sc(C)c(C)c1C(N)=O)Cc1ccc(F)cc1 | -22.3 |
| COc1cc(/C=C/C(=O)NNc2c(F)c(F)cc(F)c2F)ccc1OC(F)F | 12.3 |
| O=C(CCNC(=O)Cn1ccc2ccccc2c1=O)NCCc1ccc(Cl)cc1 | 22.3 |
| Cc1ccc(C(C(=O)NC2CCCCC2)N(CCC(C)C)C(=O)CNC(=O)c2ccco2)o1 (centres unmarked) | -20.1 |
| O=C(CN1C(=O)C2CCCCC2C1=O)Nc1ccccc1N1CCCC1 (centres unmarked) | 1.43 |
| Cc1[nH]c2ccccc2c1C(=O)CN1CCCCC1CCO (centres unmarked) | -9.92 |
| CN(C)CCCN=Cc1c(-c2ccccc2)[nH]n(-c2nc3ccccc3s2)c1=O | -71 |
